Data published in publication PMC4336329 (PLoS ONE, 2015).
In all, about 310,000 compounds went through this assay and about 2,200 (0.71%) showed an effect of 50% or more. Effects have a minus sign here. This is one part of the list.

The compounds below were run against human ether-à-go-go-related gene (hERG) potassium channel (human, UniProt Q12809) (assay: primary screen, population patch clamp on CHO cells stably expressing hERG).
Sequence of human ether-à-go-go-related gene (hERG) potassium channel (Q12809 whole entry, looked up): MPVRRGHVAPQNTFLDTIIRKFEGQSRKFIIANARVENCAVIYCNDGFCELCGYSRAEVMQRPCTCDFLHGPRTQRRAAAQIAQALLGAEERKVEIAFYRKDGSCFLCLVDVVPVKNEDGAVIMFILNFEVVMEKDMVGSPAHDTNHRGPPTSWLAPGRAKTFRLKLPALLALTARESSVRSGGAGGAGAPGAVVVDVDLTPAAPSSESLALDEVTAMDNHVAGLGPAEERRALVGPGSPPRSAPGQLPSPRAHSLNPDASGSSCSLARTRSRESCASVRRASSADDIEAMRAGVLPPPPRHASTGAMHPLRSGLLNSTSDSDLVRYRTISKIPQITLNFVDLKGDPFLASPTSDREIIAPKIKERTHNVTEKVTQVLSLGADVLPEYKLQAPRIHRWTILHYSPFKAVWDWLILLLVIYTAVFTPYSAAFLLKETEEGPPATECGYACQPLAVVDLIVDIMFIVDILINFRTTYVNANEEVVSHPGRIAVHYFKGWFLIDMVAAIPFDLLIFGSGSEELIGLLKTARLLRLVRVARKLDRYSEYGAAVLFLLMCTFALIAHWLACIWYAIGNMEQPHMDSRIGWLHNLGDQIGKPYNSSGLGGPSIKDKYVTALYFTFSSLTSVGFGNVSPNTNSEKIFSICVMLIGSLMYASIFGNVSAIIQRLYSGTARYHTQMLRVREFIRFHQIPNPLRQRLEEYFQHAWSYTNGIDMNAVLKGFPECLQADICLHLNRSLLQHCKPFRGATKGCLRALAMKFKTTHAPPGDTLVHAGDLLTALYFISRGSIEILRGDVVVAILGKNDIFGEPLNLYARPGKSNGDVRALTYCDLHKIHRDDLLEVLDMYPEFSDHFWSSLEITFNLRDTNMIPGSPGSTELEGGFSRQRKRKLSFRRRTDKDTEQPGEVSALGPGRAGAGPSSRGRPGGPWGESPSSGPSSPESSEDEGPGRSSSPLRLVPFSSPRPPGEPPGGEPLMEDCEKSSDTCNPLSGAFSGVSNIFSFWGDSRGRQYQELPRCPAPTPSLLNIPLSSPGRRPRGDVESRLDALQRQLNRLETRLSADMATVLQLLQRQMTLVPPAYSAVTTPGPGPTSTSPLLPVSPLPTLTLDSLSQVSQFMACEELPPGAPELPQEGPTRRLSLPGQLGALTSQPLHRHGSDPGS

Structure (SMILES) | hERG current change (%, negative = inhibition) at 1uM
N#Cc1c(SCC(=O)Nc2cccc(F)c2)sc2c(O)cc(=O)[nH]c12 | 11.5%
CN1CCN(C(=O)CNc2ccc(C(F)(F)F)cc2[N+](=O)[O-])CC1 | -4.92%
COc1ccc(-c2cc(C(=O)Nc3cc(Cl)ccc3O)no2)cc1 | 13.7%
O=C(COc1cccc2cccnc12)N1CCc2ccccc2C1 | 4.59%
CC1(C)CC(=O)C2=C(C1)NC(Nc1nc3ccccc3o1)=NC21CCCC1 | 0.0528%
CCOC(=O)C1(Cc2ccccc2Cl)CCN(C(=O)CCn2ccnc2C)CC1 | 2.18%
CCN(CC)S(=O)(=O)c1ccc(-c2nnc(SCC(C)=O)o2)cc1 | 1.27%
CCCCNC(=O)CCn1c(=S)[nH]c2cc3c(cc2c1=O)OCO3 | 1.57%
COc1ccccc1C1(CC(=O)N2CCOCC2)CCOC(C(C)C)C1 (stereo not shown) | 6.53%
Cc1nc2nc(SCC(=O)O)nn2c(C)c1Cc1c(F)cccc1Cl | 14.3%
COc1cc2c(C(=O)Nc3ccccc3F)cn(C)c(=O)c2cc1OC | 11.7%
Cc1ccc(S(=O)(=O)N2CCN(C(=O)COC(=O)/C=C/c3ccc(F)cc3)CC2)c(C)c1 | 17.6%
COC(=O)C(C)Sc1snnc1-c1ccccc1 (stereo not shown) | 10.4%
CCOC(=O)CN(C(=O)Cn1nnc2ccccc21)C(C(=O)NCCOC)c1ccccc1 (stereo not shown) | 2.99%
CCC(=O)Nc1ccc(C(=O)OCc2ccccc2Cl)cc1 | 4.84%
Cc1ccc(C)c(NC(=S)NCCc2ccc(F)cc2)c1 | 8.55%
Cc1ccc(SCc2c(-c3ccccc3)nn(C)c2Cl)cc1 | 5.94%
O=C(Cn1cnc2ccccc21)Nc1ccc(F)c(F)c1 | 3.75%
CCOC(=O)N1CCC(NC(=O)c2ccc3c(c2)N(Cc2ccccc2)CCS3)CC1 | 13.7%
CCC(=O)Nc1ccc(S(=O)(=O)Nc2ccccn2)cc1 | 16.9%
NC(=O)N/N=C/c1coc2ccc(O)cc2c1=O | 14.2%
CCOC(=O)c1c(C)n2c3c(cc(C)cc13)CCC2 | 7.99%
CC1CCCC(C)N1C(=O)CCN1C(=O)C2C3C=CC(C3)C2C1=O (stereo not shown) | 13.3%

Structure (SMILES) | hERG current change (%, negative = inhibition) at 1uM
CCOc1ccc(CCNC(=O)C2=C(C)C(=O)OC23CCC(C)CC3)cc1OCC (stereo not shown) | 0.121%
COCCCNC(=O)c1cn(C)c(=O)c2cc(OC)c(OC)cc12 | 14.1%
CCn1c(CSc2nnc(C)n2-c2ccccc2)nc2cc(S(=O)(=O)N(C)C)ccc21 | -2.51%
c1ccc(Oc2cccc(CN3CCOCC3)c2)cc1 | -8.51%
CCC(=O)NCC(=O)OCC(=O)c1ccccc1 | 11.4%
Cc1nc(N2CCN(C(=O)c3ccco3)CC2)c2oc3ccccc3c2n1.Cl | -21.6%
CNC(=O)c1cc2c(=O)n3cccc(C)c3nc2n(C(C)C)c1=N | -82.3%
Cc1cc(C(C)(C)C)c(OC(=O)[C@@H]2OC(c3ccccc3)=C[C@H]2c2ccccc2)c(C(C)(C)C)c1 | 18.6%
CCN(CC)S(=O)(=O)c1cccc(C(=O)NCCCn2ccnc2)c1 | 9.38%
CCc1cc2c(NCc3ccccc3)nc(C)nc2s1.Cl | 8.39%
Cn1c(=O)[nH]c(=O)c2c1nc(NC1CCCCC1)n2Cc1ccccc1 | 12.3%
CC1CC(CC(C)C(=O)Nc2nncs2)C(=O)O1 (stereo not shown) | -7.98%
Cc1ccccc1NC(=O)NCCN1CC1 | 7.94%
O=C(c1cc2cc(Cl)ccc2[nH]1)N1CCN(Cc2ccc3c(c2)OCO3)CC1 | 15.3%
COC(=O)C1(NC(=O)NC23CC4CC(CC(C4)C2)C3)CCCCC1 | 8.25%
COc1cccc(NC(=O)CN(C)C(=O)COc2cc(C)ccc2Cl)c1 | -3.58%
COC(=O)C1C(O)CCC2CN3CCc4c([nH]c5ccccc45)C3CC21 (stereo not shown) | 1.1%
Cc1ccc(CNC(=O)c2cn(C3CCCC3)c(=O)c3c2c2ccccc2n3C)o1 | 5.32%
O=S(=O)(NCCCCNS(=O)(=O)c1ccc(F)cc1)c1ccc(F)cc1 | 1.12%
COc1cc(-c2noc(C)c2C#Cc2ccc(N)cc2)cc(OC)c1OC | 0.236%
Cc1ccc(S(=O)(=O)N2CCN(C(=O)C3CCCO3)CC2)cc1 (stereo not shown) | 9.34%
Cn1c(-c2c(N)n(C3CCCC3)c3nc4ccccc4nc23)nc2ccccc21 | 11.8%
COc1cc2ccccc2cc1C(=O)N1CCOCC1 | -16.7%
